This is one part of the list.
Target: T1, OsWOX13 (Oryza sativa, UniProt Q5QMM3 1-267)
T1 sequence: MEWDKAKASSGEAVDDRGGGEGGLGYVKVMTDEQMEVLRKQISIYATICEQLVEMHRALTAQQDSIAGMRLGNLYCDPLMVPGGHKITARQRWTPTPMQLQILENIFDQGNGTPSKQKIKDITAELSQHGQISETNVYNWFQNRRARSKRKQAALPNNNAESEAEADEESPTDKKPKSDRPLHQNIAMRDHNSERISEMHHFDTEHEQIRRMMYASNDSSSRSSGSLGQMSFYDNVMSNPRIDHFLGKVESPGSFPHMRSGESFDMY
Assay: protein-binding microarray (RPBM); PBS, 2% BSA, 51.3 ng/ul salmon testes DNA, 50 uM zinc acetate, 200 nM TF, 25 C, 1 h; high values mean tight binding
Conditions: protein: recombinant; tags: N-terminal polyhistidine and DsRed monomer fusion (pET32a); label: CyDye5-dUTP incorporated in the synthesized complementary strand; 3' TTTTT single-stranded linker to array surface; dsDNA, one strand shown
Summary of the method: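 Ni–NTA purification followed expression in E. coli BL21-CodonPlus of transcription factors fused N-terminally to a polyhistidine tag and DsRed. At 200 nM in PBS with 2% BSA, salmon testes DNA and 50 µM zinc acetate, the protein was incubated for 1 h at 25 °C with a custom Agilent array that had been primer-extended with Cy5-dUTP and blocked with 2% BSA. After washing, the array was read on an Axon 4000B scanner. The binding signal is per-feature fluorescence intensity in arbitrary units.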

**Q.** Which binding signal does the source give for “TCCAAATTATCTCGCAAAGGCTGCCTTCCCAGGATCATTTCGGAGTCACCTAGTGCAG” here?
**A.** 8380 fluorescence intensity (a.u.)

**Q.** “GTTAACTGTCTGGAAGTGCTAATTTTAGCTGATAATAAGACGGAGTCACCTAGTGCAG” was tested. Which binding signal did it give?
**A.** 4320 fluorescence intensity (a.u.)

**Q.** With “ACTATTGACCACCATTAATTATACATAACCACTTTAGTATCGGAGTCACCTAGTGCAG” as the sequence, how does the binding signal read?
**A.** 8880 fluorescence intensity (a.u.)

**Q.** Which binding signal does the source give for “ACTAAATTTGATTCTTCGAAAGGCGGCATACTCTCTATTCCGGAGTCACCTAGTGCAG” here?
**A.** 10100 fluorescence intensity (a.u.)

**Q.** How did the binding signal turn out when “TCCTTTAATTGTCACTTTTGGATATGGTAATTAACGAGTCCGGAGTCACCTAGTGCAG” was run?
**A.** 18000 fluorescence intensity (a.u.)

**Q.** “CTGCCTGTAAATTTCTGTGATTTGATGTTTGCCTCTGTTGCGGAGTCACCTAGTGCAG” was tested. Which binding signal did it give?
**A.** 11300 fluorescence intensity (a.u.)

**Q.** Which binding signal does the source give for “ATCATCAATCTCCCCATCCTCTCTCTACTCCCGATTTGTCCGGAGTCACCTAGTGCAG” here?
**A.** 3570 fluorescence intensity (a.u.)

**Q.** Which binding signal does the source give for “ATAGAAGGTTACTAGAACTAAATTGAATTGTTCTATGACACGGAGTCACCTAGTGCAG” here?
**A.** 4720 fluorescence intensity (a.u.)

**Q.** “ACCCATCACTAATCAGTAATCACAGTATTACTATTAAATTCGGAGTCACCTAGTGCAG” was tested. Which binding signal did it give?
**A.** 9220 fluorescence intensity (a.u.)

**Q.** “TTAAATCAATAATTAAATATATTTTCATAATAAATTTGTGCGGAGTCACCTAGTGCAG” was tested. Which binding signal did it give?
**A.** 27500 fluorescence intensity (a.u.)

**Q.** With “ATATGCTTGTTAATTAATGTTAATGTTTCAATCCAATATACGGAGTCACCTAGTGCAG” as the sequence, how does the binding signal read?
**A.** 8760 fluorescence intensity (a.u.)

**Q.** Which binding signal does the source give for “GGTTAAATTGATCACTTTGGCTACTCATCAATCGACAACCCGGAGTCACCTAGTGCAG” here?
**A.** 38500 fluorescence intensity (a.u.)

**Q.** “ATAAATTAAGTACCAGCCTAGCCATTTGTTTTGGTTGTTTCGGAGTCACCTAGTGCAG” was tested. Which binding signal did it give?
**A.** 4590 fluorescence intensity (a.u.)

**Q.** “TGCCTAACTGAGATTTGAATCATAGTTTTGAATATCTAAACGGAGTCACCTAGTGCAG” was tested. Which binding signal did it give?
**A.** 5170 fluorescence intensity (a.u.)

**Q.** How did the binding signal turn out when “TACATTATATATTGATAGATAAAGATAGATCCAACCCGTTCGGAGTCACCTAGTGCAG” was run?
**A.** 13500 fluorescence intensity (a.u.)

**Q.** For “ATGATTGCTTAAGAATAATTGGTGACTTGCTACGAATGTGCGGAGTCACCTAGTGCAG”, which binding signal is on record?
**A.** 51300 fluorescence intensity (a.u.)

**Q.** “GTCACTATTAATTAATAATCATCGATTAATTAAGTCCTGTCGGAGTCACCTAGTGCAG” was tested. Which binding signal did it give?
**A.** 41900 fluorescence intensity (a.u.)

**Q.** Which binding signal does the source give for “TTGAGCATTTTCAATCAATGATGGAAAATGACAACGATGACGGAGTCACCTAGTGCAG” here?
**A.** 29800 fluorescence intensity (a.u.)

**Q.** “TCTAAATTTCCGTTGAATGATATTTAGCAAATCTGTACTCCGGAGTCACCTAGTGCAG” was tested. Which binding signal did it give?
**A.** 16100 fluorescence intensity (a.u.)

**Q.** With “GAACTACTAGATTGTTAATGGACATAGTAGTTGCATCATACGGAGTCACCTAGTGCAG” as the sequence, how does the binding signal read?
**A.** 3820 fluorescence intensity (a.u.)

**Q.** Which binding signal does the source give for “TTTAGAATTGTCATTATTTCAGTTATCTCTTAATTGTATTCGGAGTCACCTAGTGCAG” here?
**A.** 4520 fluorescence intensity (a.u.)

**Q.** With “AAAATTGAAAGTTTGATTGAAATTAGAACGATGTGACGAACGGAGTCACCTAGTGCAG” as the sequence, how does the binding signal read?
**A.** 35500 fluorescence intensity (a.u.)

**Q.** For “AATAAATTATCTTCTACTTTCTTATCTGCTCTTGGTTCGCCGGAGTCACCTAGTGCAG”, which binding signal is on record?
**A.** 27500 fluorescence intensity (a.u.)

**Q.** “TCTGTATGGTCTACTTGTTTGATTGATTGATAATTTTACACGGAGTCACCTAGTGCAG” was tested. Which binding signal did it give?
**A.** 22300 fluorescence intensity (a.u.)

**Q.** With “AAAATTGAATTCACCTGTTGCAACACATCAACATCTTTGCCGGAGTCACCTAGTGCAG” as the sequence, how does the binding signal read?
**A.** 6830 fluorescence intensity (a.u.)

**Q.** With “TCATGATTTTCTAAAATAAAATATTTAATAGTGAATTTCTCGGAGTCACCTAGTGCAG” as the sequence, how does the binding signal read?
**A.** 6240 fluorescence intensity (a.u.)

**Q.** How did the binding signal turn out when “ATTAAATTGAGGGACCTCTGGTGAACTTATTCCTTCCGTACGGAGTCACCTAGTGCAG” was run?
**A.** 18700 fluorescence intensity (a.u.)

**Q.** How did the binding signal turn out when “CTTGATAAGCTCAATCAAGCACAGAGCCACAGGCCTGCCTCGGAGTCACCTAGTGCAG” was run?
**A.** 24400 fluorescence intensity (a.u.)

**Q.** For “GGATAAAGGACTTGACAATGTGATTGAGCACAACTGCACACGGAGTCACCTAGTGCAG”, which binding signal is on record?
**A.** 5680 fluorescence intensity (a.u.)

**Q.** With “ATATTGATTATCGTTAATCATACATAGAAGTTTAGTAATACGGAGTCACCTAGTGCAG” as the sequence, how does the binding signal read?
**A.** 20100 fluorescence intensity (a.u.)

**Q.** For “CTCTCAACATGTTGATTAATTACTCACTAGTATATATAATCGGAGTCACCTAGTGCAG”, which binding signal is on record?
**A.** 3850 fluorescence intensity (a.u.)

**Q.** “ACTTGACTGACTCTTATATTGCTCTTTTGTTTGGAAAATTCGGAGTCACCTAGTGCAG” was tested. Which binding signal did it give?
**A.** 16000 fluorescence intensity (a.u.)

**Q.** For “GCATTGATAGAGAGTGACGATGAACACGATATTTATCCTCCGGAGTCACCTAGTGCAG”, which binding signal is on record?
**A.** 10100 fluorescence intensity (a.u.)

**Q.** For “CAGATCGAAATAGACAGACTCTGATCGACTGCCATTATCCCGGAGTCACCTAGTGCAG”, which binding signal is on record?
**A.** 9460 fluorescence intensity (a.u.)

**Q.** “CTGTTTAGATTGTTGCTAAAATAAACCTTACCAAATTTGTCGGAGTCACCTAGTGCAG” was tested. Which binding signal did it give?
**A.** 9880 fluorescence intensity (a.u.)

**Q.** How did the binding signal turn out when “CCAAATGATATAATCATGGCACATGGAGTACTGCTTAAGACGGAGTCACCTAGTGCAG” was run?
**A.** 9170 fluorescence intensity (a.u.)

**Q.** With “GTAGCTGATTACCAGCTCTTCTCTCTTCTCATTGAGAAGACGGAGTCACCTAGTGCAG” as the sequence, how does the binding signal read?
**A.** 4180 fluorescence intensity (a.u.)

**Q.** For “TAATCTTTTGTTAATTAACCCAAGCTAGTGAAGTGTAAGTCGGAGTCACCTAGTGCAG”, which binding signal is on record?
**A.** 5250 fluorescence intensity (a.u.)

**Q.** “CAAAACTAAAATGTTATCATATAATTATATATTTAAGACCCGGAGTCACCTAGTGCAG” was tested. Which binding signal did it give?
**A.** 8760 fluorescence intensity (a.u.)

**Q.** With “CCAATCCAATCAGTGCCTCTCCTCTCCTTCCCGTCCGCATCGGAGTCACCTAGTGCAG” as the sequence, how does the binding signal read?
**A.** 5780 fluorescence intensity (a.u.)

**Q.** “GTGTTAAATTATAAATTGTGTTTCTGATTACAGGCTTAGACGGAGTCACCTAGTGCAG” was tested. Which binding signal did it give?
**A.** 18900 fluorescence intensity (a.u.)

**Q.** How did the binding signal turn out when “CGAAGATTATTTGAACCATAATTTTCTCATTGGGTTAACCCGGAGTCACCTAGTGCAG” was run?
**A.** 4840 fluorescence intensity (a.u.)
